Source: article PMC4667695
Results are given in words; binding and its absence hold for the method and conditions named. In cells and extracts the contact can be indirect. Some binding calls cover weakened binding; strength is not graded here. Tags and fused reporters may be left off the sequences shown.

Amino acid sequences for entries named in this document (tags omitted).
UniProt P49597: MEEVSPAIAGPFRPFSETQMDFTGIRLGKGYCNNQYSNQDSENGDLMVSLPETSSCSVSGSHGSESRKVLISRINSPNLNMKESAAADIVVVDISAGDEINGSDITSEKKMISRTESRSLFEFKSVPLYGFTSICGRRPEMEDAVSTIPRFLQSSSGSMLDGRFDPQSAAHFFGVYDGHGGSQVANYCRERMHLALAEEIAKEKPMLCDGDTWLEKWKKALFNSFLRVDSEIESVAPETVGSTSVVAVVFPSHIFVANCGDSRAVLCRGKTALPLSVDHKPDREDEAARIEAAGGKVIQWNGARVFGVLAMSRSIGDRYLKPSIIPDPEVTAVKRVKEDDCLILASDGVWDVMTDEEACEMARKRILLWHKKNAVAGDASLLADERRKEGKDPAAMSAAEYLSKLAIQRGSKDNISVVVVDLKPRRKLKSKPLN
UniProt O04719: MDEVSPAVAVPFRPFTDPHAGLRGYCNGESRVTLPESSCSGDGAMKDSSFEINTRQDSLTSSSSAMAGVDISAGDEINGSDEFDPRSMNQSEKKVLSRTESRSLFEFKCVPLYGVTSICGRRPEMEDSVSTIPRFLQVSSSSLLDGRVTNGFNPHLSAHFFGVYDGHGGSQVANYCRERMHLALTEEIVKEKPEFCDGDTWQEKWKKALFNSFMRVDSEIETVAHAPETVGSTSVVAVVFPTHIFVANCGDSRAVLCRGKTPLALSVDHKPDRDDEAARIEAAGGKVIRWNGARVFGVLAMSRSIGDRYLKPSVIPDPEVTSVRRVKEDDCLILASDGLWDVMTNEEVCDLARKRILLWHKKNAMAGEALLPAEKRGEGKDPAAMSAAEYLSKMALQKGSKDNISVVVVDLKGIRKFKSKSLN

T1: AHG1 (Arabidopsis thaliana) (UniProt Q9FLI3)
T1 sequence: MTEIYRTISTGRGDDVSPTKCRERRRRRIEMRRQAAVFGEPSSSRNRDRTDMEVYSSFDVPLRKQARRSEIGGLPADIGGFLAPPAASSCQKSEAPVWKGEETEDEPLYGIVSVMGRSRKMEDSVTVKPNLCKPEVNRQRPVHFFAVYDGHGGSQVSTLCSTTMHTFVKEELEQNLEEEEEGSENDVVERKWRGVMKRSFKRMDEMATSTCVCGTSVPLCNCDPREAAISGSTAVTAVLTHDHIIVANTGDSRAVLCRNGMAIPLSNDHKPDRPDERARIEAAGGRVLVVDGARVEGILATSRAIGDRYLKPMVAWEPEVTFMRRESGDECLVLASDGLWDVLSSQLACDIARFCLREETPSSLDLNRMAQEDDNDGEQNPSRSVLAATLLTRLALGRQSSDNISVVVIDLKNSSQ

T2: AHG3 (Arabidopsis thaliana) (UniProt P49598)
T2 sequence: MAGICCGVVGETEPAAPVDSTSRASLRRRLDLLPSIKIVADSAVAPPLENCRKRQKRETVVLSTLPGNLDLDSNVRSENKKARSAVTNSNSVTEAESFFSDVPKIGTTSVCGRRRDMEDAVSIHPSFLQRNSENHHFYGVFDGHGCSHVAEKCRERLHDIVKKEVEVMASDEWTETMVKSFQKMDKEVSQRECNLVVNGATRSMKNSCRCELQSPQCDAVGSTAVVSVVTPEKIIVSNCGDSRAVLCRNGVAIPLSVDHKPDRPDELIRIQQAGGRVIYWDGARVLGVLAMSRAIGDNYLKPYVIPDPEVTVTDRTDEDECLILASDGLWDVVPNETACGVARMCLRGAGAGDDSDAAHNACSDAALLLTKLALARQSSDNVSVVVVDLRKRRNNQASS

T3: HAB2 (Arabidopsis thaliana) (UniProt Q9LNP9)
T3 sequence: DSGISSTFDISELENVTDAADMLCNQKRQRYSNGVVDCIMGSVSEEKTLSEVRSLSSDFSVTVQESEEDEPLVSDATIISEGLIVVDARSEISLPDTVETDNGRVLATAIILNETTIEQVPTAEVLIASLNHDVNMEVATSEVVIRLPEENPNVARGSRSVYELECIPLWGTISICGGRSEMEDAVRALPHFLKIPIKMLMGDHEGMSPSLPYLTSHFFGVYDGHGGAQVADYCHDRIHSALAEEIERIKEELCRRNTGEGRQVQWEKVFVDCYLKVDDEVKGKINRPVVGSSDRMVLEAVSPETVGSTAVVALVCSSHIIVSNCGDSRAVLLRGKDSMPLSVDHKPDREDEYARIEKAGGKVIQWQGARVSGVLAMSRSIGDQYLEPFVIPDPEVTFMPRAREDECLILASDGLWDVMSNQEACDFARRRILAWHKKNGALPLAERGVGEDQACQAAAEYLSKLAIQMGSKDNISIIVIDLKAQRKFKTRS


Legend:
[1] = target: cLUC-ABI1 (Arabidopsis thaliana) (UniProt P49597); experiment: split reporter; firefly luciferase complementation imaging (LCI); cLUC and nLUC fusions co-expressed in Nicotiana benthamiana leaves by Agrobacterium infiltration, imaged after 3 days with 1 mM luciferin
[2] = target: ABI1-Myc (Arabidopsis thaliana) (UniProt P49597); experiment: co-IP; Arabidopsis protoplasts co-transfected with Myc- and Flag-tagged constructs, 14-16 h; lysate (10 mM HEPES pH 7.5, 100 mM NaCl, 1 mM EDTA, 10% glycerol, 0.5% Triton X-100) on anti-c-Myc agarose 2 h at 4 °C; blots with anti-Flag and anti-Myc
[3] = target: ABI2-Myc (Arabidopsis thaliana) (UniProt O04719); experiment: as above
[4] = target: T1, AHG1 (Arabidopsis thaliana); experiment: as above
[5] = target: T2, AHG3 (Arabidopsis thaliana); experiment: as above
[6] = target: T3, HAB2 (Arabidopsis thaliana); experiment: as above
[7] = target: native ABI1 (Arabidopsis thaliana (endogenous in plants)) (UniProt P49597); experiment: co-IP; native ABI1 and PUB13-Flag from transgenic plants expressing Pro35S:PUB13-Flag (Supplementary Fig. 5)

binding [1] | binding [2] | binding [3] | binding [4] | binding [5] | binding [6] | binding [7] | Binder
binds | – | – | – | – | – | – | PUB12-nLUC (enzyme, UniProt Q9ZV31 1-654) MAKSEKHKLAQTLIDSINEIASISDSVTPMKKHCANLSRRLSLLLPMLEEIRDNQESSSEVVNALLSVKQSLLHAKDLLSFVSHVSKIYLVLERDQVMVKFQKVTSLLEQALSIIPYENLEISDELKEQVELVLVQLRRSLGKRGGDVYDDELYKDVLSLYSGRGSVMESDMVRRVAEKLQLMTITDLTQESLALLDMVSSSGGDDPGESFEKMSMVLKKIKDFVQTYNPNLDDAPLRLKSSLPKSRDDDRDMLIPPEEFRCPISLELMTDPVIVSSGQTYERECIKKWLEGGHLTCPKTQETLTSDIMTPNYVLRSLIAQWCESNGIEPPKRPNISQPSSKASSSSSAPDDEHNKIEELLLKLTSQQPEDRRSAAGEIRLLAKQNNHNRVAIAASGAIPLLVNLLTISNDSRTQEHAVTSILNLSICQENKGKIVYSSGAVPGIVHVLQKGSMEARENAAATLFSLSVIDENKVTIGAAGAIPPLVTLLSEGSQRGKKDAATALFNLCIFQGNKGKAVRAGLVPVLMRLLTEPESGMVDESLSILAILSSHPDGKSEVGAADAVPVLVDFIRSGSPRNKENSAAVLVHLCSWNQQHLIEAQKLGIMDLLIEMAENGTDRGKRKAAQLLNRFSRFNDQQKQHSGLGLEDQISLI
– | binds | no binding | no binding | no binding | no binding | – | PUB12-Flag (enzyme, UniProt Q9ZV31 1-654) MAKSEKHKLAQTLIDSINEIASISDSVTPMKKHCANLSRRLSLLLPMLEEIRDNQESSSEVVNALLSVKQSLLHAKDLLSFVSHVSKIYLVLERDQVMVKFQKVTSLLEQALSIIPYENLEISDELKEQVELVLVQLRRSLGKRGGDVYDDELYKDVLSLYSGRGSVMESDMVRRVAEKLQLMTITDLTQESLALLDMVSSSGGDDPGESFEKMSMVLKKIKDFVQTYNPNLDDAPLRLKSSLPKSRDDDRDMLIPPEEFRCPISLELMTDPVIVSSGQTYERECIKKWLEGGHLTCPKTQETLTSDIMTPNYVLRSLIAQWCESNGIEPPKRPNISQPSSKASSSSSAPDDEHNKIEELLLKLTSQQPEDRRSAAGEIRLLAKQNNHNRVAIAASGAIPLLVNLLTISNDSRTQEHAVTSILNLSICQENKGKIVYSSGAVPGIVHVLQKGSMEARENAAATLFSLSVIDENKVTIGAAGAIPPLVTLLSEGSQRGKKDAATALFNLCIFQGNKGKAVRAGLVPVLMRLLTEPESGMVDESLSILAILSSHPDGKSEVGAADAVPVLVDFIRSGSPRNKENSAAVLVHLCSWNQQHLIEAQKLGIMDLLIEMAENGTDRGKRKAAQLLNRFSRFNDQQKQHSGLGLEDQISLI
– | binds | no binding | no binding | no binding | no binding | binds | PUB13-Flag (enzyme, UniProt Q9SNC6 1-660) MEEEKASAAQSLIDVVNEIAAISDYRITVKKLCYNLARRLKLLVPMFEEIRESNEPISEDTLKTLMNLKEAMCSAKDYLKFCSQGSKIYLVMEREQVTSKLMEVSVKLEQSLSQIPYEELDISDEVREQVELVLSQFRRAKGRVDVSDDELYEDLQSLCNKSSDVDAYQPVLERVAKKLHLMEIPDLAQESVALHEMVASSGGDVGENIEEMAMVLKMIKDFVQTEDDNGEEQKVGVNSRSNGQTSTAASQKIPVIPDDFRCPISLEMMRDPVIVSSGQTYERTCIEKWIEGGHSTCPKTQQALTSTTLTPNYVLRSLIAQWCEANDIEPPKPPSSLRPRKVSSFSSPAEANKIEDLMWRLAYGNPEDQRSAAGEIRLLAKRNADNRVAIAEAGAIPLLVGLLSTPDSRIQEHSVTALLNLSICENNKGAIVSAGAIPGIVQVLKKGSMEARENAAATLFSLSVIDENKVTIGALGAIPPLVVLLNEGTQRGKKDAATALFNLCIYQGNKGKAIRAGVIPTLTRLLTEPGSGMVDEALAILAILSSHPEGKAIIGSSDAVPSLVEFIRTGSPRNRENAAAVLVHLCSGDPQHLVEAQKLGLMGPLIDLAGNGTDRGKRKAAQLLERISRLAEQQKETAVSQPEEEAEPTHPESTTEAADT
binds | – | – | – | – | – | – | PUB13-nLUC (enzyme, UniProt Q9SNC6 1-660) MEEEKASAAQSLIDVVNEIAAISDYRITVKKLCYNLARRLKLLVPMFEEIRESNEPISEDTLKTLMNLKEAMCSAKDYLKFCSQGSKIYLVMEREQVTSKLMEVSVKLEQSLSQIPYEELDISDEVREQVELVLSQFRRAKGRVDVSDDELYEDLQSLCNKSSDVDAYQPVLERVAKKLHLMEIPDLAQESVALHEMVASSGGDVGENIEEMAMVLKMIKDFVQTEDDNGEEQKVGVNSRSNGQTSTAASQKIPVIPDDFRCPISLEMMRDPVIVSSGQTYERTCIEKWIEGGHSTCPKTQQALTSTTLTPNYVLRSLIAQWCEANDIEPPKPPSSLRPRKVSSFSSPAEANKIEDLMWRLAYGNPEDQRSAAGEIRLLAKRNADNRVAIAEAGAIPLLVGLLSTPDSRIQEHSVTALLNLSICENNKGAIVSAGAIPGIVQVLKKGSMEARENAAATLFSLSVIDENKVTIGALGAIPPLVVLLNEGTQRGKKDAATALFNLCIYQGNKGKAIRAGVIPTLTRLLTEPGSGMVDEALAILAILSSHPEGKAIIGSSDAVPSLVEFIRTGSPRNRENAAAVLVHLCSGDPQHLVEAQKLGLMGPLIDLAGNGTDRGKRKAAQLLERISRLAEQQKETAVSQPEEEAEPTHPESTTEAADT
– | no binding | – | – | – | – | – | PUB9-Flag (enzyme, UniProt Q9SRT0 1-460) MAKTGVFDSDPTAIAKAKELKREMKKLLIKIDDEDDLGVQTIDQLQDALSALREATMRKMAKSSSLEMLETVSCPEEFRCPLSNELMRDPVVLASGQTYDKLFIQKWLSSGNRTCPKTQQVLPHTALTPNLLIREMISKWCKKNGLETKSQYHPNLVNEDETVTRSDREIFNSLLCKVSSSNLQDQKSAAKELRLLTRKGTEFRALFGESPDEITRLVNPLLHGSNPDEKLQEDVVTTLLNISIHDDSNKKLVCENPNVIPLLIDALRRGTVATRSNAAAAIFTLSALDSNKVLIGKSGILKPLIDLLEEGNPLAIKDVAAAIFTLCIAHENRSRAVRDGAVRVLGKKISNGLYVDELLAILAMLVTHWKAVEELGELGGVSWLLKITRESECKRNKENAIVILHTICFSDRTKWKEIKEEENAHGTITKLSREGTSRAQRKANGILDRLRKAMNLTHTA
